Experimental data: the supplement of paper PMC10126150
Values marked as one replicate rest on one cluster of the flow cell; about a third of the high ones do not repeat.

system: ATP; test: switch fluorescence ratio, 500 uM ATP over buffer (Cy3 cluster intensity, sum of 5 cycles each) (fold (ratio)); higher = stronger signal-on switching upon ATP binding; sequences stand for … in TCGTCGGCAGCGTCAGATGTGTATAAGAGACAGTTTTTTTTTTTTTTTTTTTTTTTTT…TC; settings: aptamer strand: ATP DNA aptamer (quencher-CACCTGGGGGAGTATTGCGGAGGAAGG + anchor), 100 nM annealed; ATP concentration: 500 uM; one replicate
In short: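 The quencher-labelled ATP aptamer, at 100 nM, was annealed to Cy3-labelled switching-strand clusters on a modified Illumina MiSeq flow-cell. The clusters were imaged in selection buffer, then after 15 min with 500 uM ATP at 22 °C, and this buffer/ATP cycle ran five times with NaOH stripping and re-annealing between runs. Per-cluster fluorescence ratios, summed target-cycle over summed buffer-cycle Cy3 intensity, were averaged per switch-domain sequence. Clusters outside 100-1000 RFU were excluded.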
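Also: ATP exposure 15 min at 22 °C before imaging.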

| Sequence | switch fluorescence ratio |
| --- | --- |
| ACACAGTTTC | 1.02 |
| ACACCGTAAA | 1.01 |
| ACACCGTAAC | 1.21 |
| ACACCGTACG | 1.41 |
| ACACGAGTTT | 1.01 |
| ACACGCACAC | 1.87 |
| ACACGCGCTG | 1.02 |
| ACACGGCCTC | 1.07 |
| ACACGTGTTC | 0.985 |
| ACACTATCTA | 1.05 |
| ACACTATGAG | 0.998 |
| ACACTGAACC | 1.33 |
| ACACTTACG | 1.57 |
| ACACTTCATT | 1.04 |
| ACACTTCTAA | 1.03 |
| ACAGAAAGTC | 1.03 |
| ACAGAAGGTG | 1.53 |
| ACAGACAACG | 1.1 |
| ACAGACG | 1.02 |
| ACAGAGCTCT | 0.974 |
| ACAGAGTTAT | 0.997 |
| ACAGATGCCT | 1.09 |
| ACAGATGCGG | 1.05 |
| ACAGCATATG | 1.04 |
| ACAGCCTCTA | 0.987 |
| ACAGCGACGC | 1.02 |

| Sequence | switch fluorescence ratio |
| --- | --- |
| ACAGCGACTA | 1.08 |
| ACAGCGCTGA | 0.992 |
| ACAGCGGTTG | 1.03 |
| ACAGCTTAGA | 1.01 |
| ACAGGAAGCG | 1.07 |
| ACAGGACCAG | 1.09 |
| ACAGGAGATT | 1.05 |
| ACAGGAGCAG | 1.02 |
| ACAGGAGCGA | 0.985 |
| ACAGGGCGCT | 0.987 |
| ACAGGGCTGT | 1 |
| ACAGGTACGC | 1.12 |
| ACAGGTAGTC | 1.05 |
| ACAGGTTCTC | 0.984 |
| ACAGGTTGGC | 0.952 |
| ACAGTAACGT | 1.12 |
| ACAGTAAGCT | 1.01 |
| ACAGTTGAAC | 0.999 |
| ACAGTTTTTC | 0.949 |
| ACATAACTTA | 1.12 |
| ACATAATCAT | 1 |
| ACATACGCTC | 1.35 |
| ACATATTAAG | 0.988 |
| ACATCAAAGA | 0.996 |
| ACATCAGCAG | 0.977 |
| ACATCATGAT | 1.05 |

| Sequence | switch fluorescence ratio |
| --- | --- |
| ACATCTTTCA | 1.05 |
| ACATGAAGCT | 0.932 |
| ACATGAGTT | 1 |
| ACATGATGGG | 1.03 |
| ACATGCTAGG | 0.995 |
| ACATGGCTCG | 0.978 |
| ACATGGCTGT | 1.02 |
| ACATGTGAAT | 0.971 |
| ACATTAATGT | 1.03 |
| ACATTATA | 1.05 |
| ACATTATTAA | 1.04 |
| ACATTCGAG | 1.03 |
| ACATTTAGCG | 0.978 |
| ACATTTGTGT | 1.01 |
| ACATTTTTGA | 1.02 |
| ACATTTTTTA | 0.967 |
| ACCAAAATTC | 2.11 |
| ACCAACGAAC | 1.34 |
| ACCAAGTGAA | 1 |
| ACCAATATGA | 1.08 |
| ACCAATTAC | 1.46 |
| ACCAATTGTA | 1.01 |
| ACCACACAAT | 1.19 |
| ACCACGAACC | 1.52 |
| ACCACGAGAT | 1.14 |
| ACCAGAGAAA | 1.02 |

| Sequence | switch fluorescence ratio |
| --- | --- |
| ACCAGATAGT | 1.03 |
| ACCAGATGAG | 1.04 |
| ACCAGCCGCC | 1.33 |
| ACCAGCTGCA | 0.962 |
| ACCAGTAGGG | 0.967 |
| ACCAGTGGTG | 1.11 |
| ACCATACACG | 1.24 |
| ACCATCGA | 0.993 |
| ACCATCGCGT | 1.01 |
| ACCATGATTC | 1.09 |
| ACCATGCCCT | 0.981 |
| ACCATTGGCT | 0.994 |
| ACCATTTTAT | 1.02 |
| ACCATTTTTA | 1.05 |
| ACCCACATAG | 1.31 |
| ACCCACCGAC | 1.46 |
| ACCCAGCGCA | 1.12 |
| ACCCAGTCAT | 1.01 |
| ACCCCACCGA | 1.37 |
| ACCCCCTTCC | 2.96 |
| ACCCCGGCGG | 1.33 |
| ACCCCTTGGT | 1.1 |
| ACCCCTTGTT | 1.06 |
| ACCCGAATGG | 1.03 |
| ACCCGCCCGC | 2.19 |
| ACCCGCGGG | 0.996 |

| Sequence | switch fluorescence ratio |
| --- | --- |
| ACCCGCGGGG | 0.972 |
| ACCCGGTCTT | 1.02 |
| ACCCGTACCT | 1.38 |
| ACCCTAGTTC | 1.05 |
| ACCCTGTGAG | 0.997 |
| ACCCTTTGCG | 0.999 |
| ACCCTTTTAT | 1.05 |
| ACCGACGTTT | 1.38 |
| ACCGAGGTTT | 0.98 |
| ACCGATACGT | 1.19 |
| ACCGATGGCA | 0.983 |
| ACCGCATAGA | 1.21 |
| ACCGCCATCC | 2.39 |
| ACCGCGGAGG | 0.972 |
| ACCGCGTCGG | 0.998 |
| ACCGCTCCAG | 1.27 |
| ACCGCTGGGT | 1.05 |
| ACCGCTTATA | 1.85 |
| ACCGGACACG | 1.05 |
| ACCGGACCA | 1.17 |
| ACCGGGACGC | 1.14 |
| ACCGGGGTTG | 1.01 |
| ACCGGTGGGG | 0.929 |
| ACCGGTTACT | 1.08 |
| ACCGGTTTGT | 0.979 |
| ACCGTAATGT | 1.38 |

| Sequence | switch fluorescence ratio |
| --- | --- |
| ACCGTAATTG | 1.23 |
| ACCGTATTAT | 1.16 |
| ACCGTCGTCG | 1.01 |
| ACCGTCTTAT | 1.16 |
| ACCGTGACGA | 1.08 |
| ACCGTTAT | 1.08 |
| ACCTAAACAT | 1.11 |
| ACCTAGGTAT | 0.965 |
| ACCTAGTG | 1.02 |
| ACCTATCACT | 1.16 |
| ACCTATTAAT | 1 |
| ACCTATTCAG | 1.05 |
| ACCTCGAGGT | 0.965 |
| ACCTCGGTTC | 1.04 |
| ACCTGACTGT | 1.54 |
| ACCTGCCGCC | 2.03 |
| ACCTGCCTGA | 1.12 |
| ACCTGGCATA | 1.13 |
| ACCTGTAGAA | 1.13 |
| ACCTGTTGAA | 0.994 |
| ACCTTAATAG | 1.02 |
| ACCTTACACC | 1.7 |
| ACCTTCATTG | 1.36 |
| ACCTTCTGCT | 1.06 |
| ACCTTGTGGC | 1.05 |
| ACCTTTAAAC | 1.05 |

| Sequence | switch fluorescence ratio |
| --- | --- |
| ACCTTTCTGC | 1.7 |
| ACGAAATTCG | 1 |
| ACGAAATTT | 1.05 |
| ACGAACCATA | 1.23 |
| ACGAACGTTT | 1.07 |
| ACGAAGTAGG | 0.972 |
| ACGAAGTATA | 0.989 |
| ACGAATGTTT | 0.973 |
| ACGACAACGG | 1.16 |
| ACGACAGATA | 1.08 |
| ACGACCAGT | 1.03 |
| ACGACCGAAT | 1.14 |
| ACGACCGTAA | 1.18 |
| ACGACGGCGA | 1.52 |
| ACGACGGGAT | 1.07 |
| ACGACGTTGT | 1.03 |
| ACGACTCCTG | 1.01 |
| ACGAGAGTCA | 1 |
| ACGAGCACGA | 1.27 |
| ACGAGGAA | 1.04 |
| ACGAGGAGGT | 0.948 |
| ACGAGGATAC | 1.33 |
| ACGAGTACAG | 1.13 |
| ACGAGTCACT | 1.09 |
| ACGAGTCAGT | 0.952 |
| ACGATATTGC | 1.15 |

| Sequence | switch fluorescence ratio |
| --- | --- |
| ACGATCGATT | 1.03 |
| ACGATCTTAC | 1.36 |
| ACGATGAGTG | 0.97 |
| ACGATGCGGC | 1.59 |
| ACGATGGGT | 0.999 |
| ACGATTGGGG | 1.13 |
| ACGATTTCCT | 1.04 |
| ACGATTTGTG | 0.997 |
| ACGCACCTAT | 1.37 |
| ACGCACGTAT | 1.24 |
| ACGCACTAGT | 1.5 |
| ACGCAGTTGA | 1.03 |
| ACGCCAACCG | 1.12 |
| ACGCCAGGAG | 1.24 |
| ACGCCAGTGC | 1.19 |
| ACGCCAGTTT | 1.04 |
| ACGCCCCATC | 1.13 |
| ACGCCTGCCA | 1.07 |
| ACGCGACCGT | 1.16 |
